The list shows a part of the results.
Test system: PfHDP1 homeodomain (GST-tagged)
Test: gcPBM binding intensity (ln(normalized median fluorescence intensity)); higher = stronger DNA binding
Method in brief: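 The binding buffer was 1× PBS containing 1% milk, 0.2 mg/ml BSA, 0.5% salmon testes DNA and 0.03% Triton X-100. In it, GST-tagged P. falciparum DNA-binding domains expressed in E. coli were applied for 1 h to an Agilent 4 × 180k array of primer-extended double-stranded 36-bp intergenic genomic probes plus negative controls. Binding intensity, read with Alexa488 anti-GST antibody and a 488 nm scan, is the highest Masliner-normalised natural-log median intensity across replicate spots of either probe orientation.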

Row | Sequence | gcPBM binding intensity (ln)
1 | TATATATATATATATACATGCATACATATACATACA [TGCATGCA_site897] | 9.24
2 | ATATATATATATAATAAACACACAAATAGATATAAC [CACACA_site9234] | 8.73
3 | AGATAAGATATATACACACACATAAATACGTACAAA [CACACA_site6639] | 7.07
4 | TTTTTTTTTACTTGTTGTACTTTTTCAAGGTATTGT [XGTACX_site7778] | 6.46
5 | ATATAAAAAAATTGCACACATAAATAAATACAGATA [CACACA_site4806] | 9.36
6 | TAAAAATTGAAGCACACACACAAAAGAAATACAATA [CACACA_site1113] | 6.92
7 | ATTTTCTTATATATATTTTGTATATATTTTGTACAT [CACACA_negctrl_site1496] | 6.67
8 | ACCCATATAATATATACACACATATATATATATATA [CACACA_site4731] | 9.42
9 | TAATGTATTATATTTTGTTTTCTTCCACCAAAAAAA [XGTACX_negctrl_site64] | 6.41
10 | AAAAAAAAAATTAAATGTACACACACCTTAAACAAT [XGTACX_site3848] | 6.74
11 | AATGTACCCACACCCACACACAAACAAATATATATA [CACACA_site2751] | 7.05
12 | ATAGGATGCATATGAGTGCATTCTGTGTTGTTATAA | 7.91
13 | AGATTAAAATATATACGTACATATTATTAATTAATA [XGTACX_site3487] | 6.31
14 | TTTATTTTTATTTAAAGTACATATCCATTTATTCCT [XGTACX_site1914] | 5.98
15 | TACTTGTTATTAACATGTACAAAAAAAAAAAAAATT [XGTACX_site1338] | 6.27
16 | AAACAATATTCTCAAGTGCAAAAAGAAAAAAGAAAT | 9.37
17 | TAAAATTTGTACATAGTGCAATTTTTTTTTTTTTTT | 8.53
18 | ATCTCTGTATGTTAGACACACATATTTTAATATGTT [CACACA_site4244] | 6.5
19 | TCACCATATAAACGTGCACACTACAAAAATATATAA [CACACA_site5413] | 9.71
20 | ATATAAATATTATAATGTACATATAATATATTTATT [XGTACX_site5212] | 6.21
21 | TATTTATTTAAAAATTGTACGTAGGATTATACACTT [XGTACX_site286] | 6.39
22 | CTTTTATTTTATTTTAGTACGCAACATTCTCTATAT [XGTACX_site7279] | 7.1
23 | AATTCGTACCTCATTTGTACATATATATATATATAT [XGTACX_site5513] | 9.34
24 | CATACACCCATACATACACACATACAGATATATATA [CACACA_site5123] | 7.25
25 | ATATATTGCACTTTTTGTACATAATGAAAAATTTTT [XGTACX_site8223] | 9.44

From the supplement of paper PMC11417369
